Assay results reported in the supplement of paper PMC5919970.
Counter-ions that a name gives are not always drawn. The full ranking holds about 2,000 compounds; the median of “fractional viability relative to vehicle” is about 0.91, and the lowest 2% start at about 0.045. The list shows a part of the results.

Test system: TYKNU
Test: fractional viability relative to vehicle; TYKNU is a high-grade serous ovarian cancer line; higher = less growth inhibition
Details: 72 h
Method in brief: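 TYKNU control cells or lentiCRISPRv2 knockout derivatives were plated at 500 cells per well in duplicate into drug-stamped 384-well plates holding a ~2100-compound library at 2 or 10 μM. Culture was in RPMI 1640 with 10% FBS at 37 °C in 5% CO2, with 72 h of drug treatment. Viability was measured by Cell Titer Glo luminescence, and the averaged duplicate treatment wells were normalised to duplicate control wells at the same plate position.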

[1] = 2uM, genotype: DNM1L knockout (sgDNM1L #1)
[2] = 2uM, genotype: sgCTRLA1 (non-targeting control)
[3] = 10uM, genotype: DNM1L knockout (sgDNM1L #1)
[4] = 10uM, genotype: sgCTRLA1 (non-targeting control)

Row | Structure (SMILES) | fractional viability [1] | fractional viability [2] | fractional viability [3] | fractional viability [4]
1 | C=CC(=O)N1CCC[C@@H](n2nc(-c3ccc(Oc4ccccc4)cc3)c3c(N)ncnc32)C1 | 1 | 1.18 | 0.959 | 1.2
2 | CC(=O)N1CCN(CCOc2ccc(C3CCN(C4=Nn5c(nnc5C(F)(F)F)CC4)CC3)cc2)CC1 | 0.811 | 0.931 | 0.663 | 0.696
3 | O=C(O)c1ccccc1C(=O)Nc1ccc(-c2ccccc2)cc1 [Kartogenin] | 0.795 | 0.86 | 0.781 | 0.743
4 | CC1=C(CC(=O)O)c2cc(F)ccc2/C1=C\c1ccc([S+](C)[O-])cc1 (centres undefined) [Sulindac] | 1.18 | 0.937 | 0.943 | 0.945
5 | C=CC(=O)Nc1ccc2ncnc(Nc3ccc(OCc4cccc(F)c4)c(Cl)c3)c2c1 | 0.704 | 0.853 | 0.044 | 0.0416
6 | Cc1nc(N)sc1-c1ccnc(Nc2ccc(N3CCOCC3)cc2)n1 | 0.619 | 0.722 | 0.29 | 0.249
7 | C[C@]12CC[C@@H]3c4ccc(O)cc4CC[C@H]3[C@@H]1C[C@@H](O)[C@@H]2O [Estriol] | 0.945 | 1.09 | 0.804 | 0.996
8 | C[C@@H]1CN(CC(=O)Nc2ccc3c(c2)Cc2cccc(-c4cc(=O)cc(N5CCOCC5)o4)c2S3)C[C@H](C)O1 | 0.779 | 0.717 | 0.397 | 0.363
9 | CCC[C@H](NC(=O)[C@@H]1[C@H]2CCC[C@H]2CN1C(=O)[C@@H](NC(=O)[C@@H](NC(=O)c1cnccn1)C1CCCCC1)C(C)(C)C)C(=O)C(=O)NC1CC1 [Telaprevir (VX-950)] | 1.14 | 1.1 | 0.668 | 0.827
10 | Cc1noc(NS(=O)(=O)c2ccc(N)cc2)c1C [Sulfisoxazole] | 1.07 | 1.1 | 0.847 | 1.03
11 | CCc1cccc2c3c([nH]c12)C(CC)(CC(=O)O)OCC3 (centres undefined) [Etodolac] | 0.996 | 1.21 | 0.863 | 1.21
12 | CCOC(=O)[C@H](CCc1ccccc1)N[C@@H](C)C(=O)N1CCC[C@H]1C(=O)O [Enalapril Maleate] | 0.858 | 1.24 | 0.86 | 1.01
13 | CNC(=O)[C@H](Cc1ccccc1)NC(=O)[C@H](CC(C)C)[C@H](CSc1cccs1)C(=O)NO [Batimastat (BB-94)] | 0.826 | 0.964 | 0.539 | 0.703
14 | CC[C@@H]1/C=C(\C)C[C@H](C)C[C@H](OC)[C@H]2O[C@@](O)(C(=O)C(=O)N3CCCC[C@H]3C(=O)O[C@H](/C(C)=C/[C@@H]3CC[C@H](Cl)[C@H](OC)C3)[C@H](C)[C@@H](O)CC1=O)[C@H](C)C[C@@H]2OC [Pimecrolimus] | 0.579 | 0.945 | 0.276 | 0.594
15 | COC[C@H](NC(=O)c1cnc(C)s1)C(=O)N[C@@H](COC)C(=O)N[C@@H](Cc1ccccc1)C(=O)[C@@]1(C)CO1 [Oprozomib (ONX 0912)] | 0.0658 | 0.0656 | 0.055 | 0.0445
16 | CCCCC(=O)N(Cc1ccc(-c2ccccc2-c2nnn[nH]2)cc1)[C@H](C(=O)O)C(C)C.CCOC(=O)[C@H](C)C[C@@H](Cc1ccc(-c2ccccc2)cc1)NC(=O)CCC(=O)O | 0.864 | 0.941 | 0.769 | 0.732
17 | Cc1cc(Nc2nc(N[C@@H](C)c3ncc(F)cn3)ncc2Cl)[nH]n1 | 0.835 | 0.944 | 0.742 | 0.599
18 | OC[C@H]1O[C@@H](O[C@@H]2[C@@H](CO)OC(O)(CO)[C@H]2O)[C@H](O)[C@@H](O)[C@H]1O (mixture of isomers) [Lactulose] | 1.05 | 1.01 | 1.04 | 1.18
19 | CN(C)[C@@H]1C(O)=C(C(N)=O)C(=O)[C@@]2(O)C(O)=C3C(=O)c4c(O)ccc(Cl)c4[C@@H](O)[C@H]3C[C@@H]12 [Demeclocycline HCl] | 1.14 | 1.31 | 0.778 | 0.995

Row | Structure (SMILES) | fractional viability [1] | fractional viability [2] | fractional viability [3] | fractional viability [4]
20 | O=C(O)CC1CC(c2ccccc2)=NO1 (centres undefined) | 0.902 | 0.982 | 0.914 | 0.786
21 | CCN(c1cc(-c2ccc(CN3CCOCC3)cc2)cc(C(=O)NCc2c(C)cc(C)[nH]c2=O)c1C)C1CCOCC1 | 0.87 | 1.1 | 0.687 | 0.961
22 | Cn1c([N+](=O)[O-])cnc1COC(N)=O [Ronidazole] | 1.74 | 1.2 | 1.58 | 1.21
23 | CN(CCOc1ccc(CC2SC(=O)NC2=O)cc1)c1ccccn1 (centres undefined) [Rosiglitazone HCl] | 0.999 | 1.06 | 0.98 | 1.04
24 | CN(CCOc1ccc(CC2SC(=O)NC2=O)cc1)c1ccccn1 (centres undefined) [Rosiglitazone maleate] | 0.971 | 1.1 | 0.833 | 1.04
25 | CN(CCOc1ccc(CC2SC(=O)NC2=O)cc1)c1ccccn1 (centres undefined) [Rosiglitazone] | 0.942 | 1.1 | 0.909 | 1.01
26 | CCOC(=O)c1c(C)n(C)c2ccc(O)cc12 [Mecarbinate] | 1.01 | 1.18 | 0.891 | 1.09
27 | COc1ccc(C[C@@H]2c3cc(OC)c(OC)cc3CC[N@+]2(C)CCC(=O)OCCCCCOC(=O)CC[N@@+]2(C)CCc3cc(OC)c(OC)cc3[C@H]2Cc2ccc(OC)c(OC)c2)cc1OC [Cisatracurium Besylate] | 0.944 | 1.02 | 0.738 | 0.918
28 | Fc1cc(-c2cccc3ncc(-c4cnn(C5CCNCC5)c4)nc23)cc(F)c1CN1CCOCC1 | 0.752 | 0.934 | 0.0836 | 0.0828
29 | CC(N)C12CC3CC(CC(C3)C1)C2 (centres undefined) [Rimantadine] | 0.969 | 1.09 | 0.803 | 0.978
30 | C[C@H](Oc1cc(-c2cnn(C3CCNCC3)c2)cnc1N)c1c(Cl)ccc(F)c1Cl [(S)-crizotinib] | 0.732 | 0.725 | 0.134 | 0.0936
31 | CN(C)CCOC(=O)COc1ccc(Cl)cc1 [Meclofenoxate (Centrophenoxine) HCl] | 0.925 | 1.23 | 0.853 | 1.25
32 | Brc1c(NC2=NCCN2)ccc2nccnc12 [Brimonidine Tartrate] | 0.978 | 1.12 | 0.889 | 1.09
33 | NCc1c[nH]c(=S)n1[C@@H]1CCc2c(F)cc(F)cc2C1 [(R)-Nepicastat HCl] | 0.808 | 1.17 | 0.847 | 1
34 | Cc1ccc2c(Cl)cc(Cl)c(O)c2n1 [Chlorquinaldol] | 0.458 | 0.733 | 0.261 | 0.305
35 | N=C(N)N/N=C/c1c(Cl)cccc1Cl [Guanabenz Acetate] | 0.975 | 1.14 | 0.845 | 1.05
36 | CCCCC[C@H](O)/C=C/[C@H]1[C@H](O)CC(=O)[C@@H]1CCCCCCC(=O)O [Alprostadil] | 0.953 | 0.991 | 0.888 | 1.07
37 | NC1=N[C@@](c2cccc(-c3cncnc3)c2)(c2ccnc(C(F)F)c2)c2cccc(F)c21 | 0.851 | 1.01 | 0.765 | 0.736
38 | CC[C@@H]([C@H](C)O)n1ncn(-c2ccc(N3CCN(c4ccc(OC[C@@H]5CO[C@@](Cn6cncn6)(c6ccc(F)cc6F)C5)cc4)CC3)cc2)c1=O [Posaconazole] | 0.919 | 1.13 | 0.868 | 1.05

Row | Structure (SMILES) | fractional viability [1] | fractional viability [2] | fractional viability [3] | fractional viability [4]
39 | O=C(O)c1ccccc1 [Benzoic Acid] | 0.793 | 0.98 | 0.581 | 0.958
40 | O=C(c1ccc(OCCCc2c[nH]cn2)cc1)C1CC1 [Ciproxifan] | 1.29 | 1.22 | 1.12 | 1.12
41 | CC(C)[C@H](N)C(=O)OCC(CO)OCn1cnc2c(=O)[nH]c(N)nc21 (some centres undefined) [Valganciclovir HCl] | 0.99 | 1.1 | 0.78 | 0.988
42 | CN1CCC[C@@H]1CCO[C@](C)(c1ccccc1)c1ccc(Cl)cc1 [Clemastine Fumarate] | 0.829 | 1.1 | 0.515 | 0.619
43 | CCOc1ccc(NC(C)=O)cc1 [Phenacetin] | 1.08 | 1.06 | 0.828 | 1.01
44 | COc1cc2ncnc(Nc3ccc(F)c(Cl)c3)c2cc1OCCCN1CCOCC1 [Gefitinib (ZD1839)] | 1 | 1.11 | 0.492 | 0.555
45 | CN1CCN(c2nc(C3=C(c4c[nH]c5ccccc45)C(=O)NC3=O)c3ccccc3n2)CC1 [Sotrastaurin] | 1.03 | 1.06 | 0.516 | 0.919
46 | CC(C(=O)O)c1ccc(C(=O)c2cccs2)cc1 (centres undefined) [Suprofen] | 0.976 | 1.12 | 0.964 | 1.08
47 | CN(C)CCCCC(=O)Nc1ccc(NC(=S)NC(=O)c2ccc(C(C)(C)C)cc2)cc1 [Tenovin-6] | 0.503 | 0.659 | 0.0825 | 0.0651
48 | C=C(c1ccc(C(=O)O)cc1)c1cc2c(cc1C)C(C)(C)CCC2(C)C [Bexarotene] | 0.94 | 1.25 | 0.777 | 0.974
49 | CC[N+](CC)(CC)CCOc1cccc(OCC[N+](CC)(CC)CC)c1OCC[N+](CC)(CC)CC [Gallamine Triethiodide] | 0.926 | 0.996 | 0.802 | 1.08
50 | Cc1ccccc1N=Nc1ccc(NC(=O)c2ccnn2C)c(C)c1 | 0.879 | 0.844 | 0.918 | 0.779
51 | Cc1c[nH]c(/C=C2\C(=O)Nc3ccccc32)c1CCC(=O)O | 0.91 | 0.936 | 0.874 | 0.784
52 | CCc1oc2ccccc2c1C(=O)c1cc(Br)c(O)c(Br)c1 [Benzbromarone] | 0.864 | 1.1 | 0.83 | 1.04
53 | CC/C(=C(\c1ccccc1)c1ccc(OCCN(C)C)cc1)c1ccccc1 [Tamoxifen Citrate] | 1.12 | 1.15 | 0.512 | 0.689
54 | Cn1cc(-c2ccc(S(=O)(=O)n3ccc(/C=C/C(=O)Nc4ccccc4N)c3)cc2)cn1 | 0.114 | 0.18 | 0.0985 | 0.136
55 | Cc1cnc(C(=O)O)c[n+]1[O-] [Acipimox] | 1.06 | 0.95 | 1.03 | 0.941
56 | COc1ccc(C2=N[C@H](c3ccc(Cl)cc3)[C@H](c3ccc(Cl)cc3)N2C(=O)N2CCNC(=O)C2)c(OC(C)C)c1 [Nutlin-3b] | 0.73 | 0.879 | 0.524 | 0.709
